Here are results for 69 sequences from the supplement of paper PMC5655136.

Read counts after selection give these values, which scatter widely.
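Note: shRNA barcodes quantified by deep sequencing of PCR amplicons from cellular DNA, counts expressed as percent of each subpool, ratio averaged over two biological duplicates.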

The data set relates to NB7. The data set can be described thus: fold depletion of shRNA, plasmid library share / infected cells without Dox share (9 days) (ratio); higher = more depleted after infection (more toxic, leaky expression from a Tet-inducible vector; NB7 is a neuroblastoma line without caspase-8). As to conditions: shRNA pool: CD95 ORF + CD95 3'UTR + Venus libraries.
With CCCGACAACCACTACCTGAGC, the “fold depletion of shRNA” value came out at 1.6. Consider CAGAATACCAAGTGCAGATGT, for which the “fold depletion of shRNA” value amounted to 2.61. As for AGGGCGAGGAGCTGTTCACCG, the figure is 1.82; as for AAAAACAACAAATTCAGTTCT, 1.53; as for TTTAAGATTCTCCTTACTACT, 0.895.

For TATATGCAATTAGTGTTTGAA, the “fold depletion of shRNA” value was 1.85.

CAAGACACAGCAGAACAGAAA: the “fold depletion of shRNA” value was 1.26. On to TAAAATCATCATCTGGATTTA, for which the “fold depletion of shRNA” value was 1.81. For GAGATCAAGAATGACAATGTC, the “fold depletion of shRNA” value was 3.25. Regarding TGTATTTGAGTGCAGAATTTA, the “fold depletion of shRNA” value worked out at 1.04. As for AGCCACAACGTCTATATCACC, the figure is 4.39; as for GCTAGATTATCGTCCAAAAGT, 1.16; as for ATGGAGGATTTTTTTGCCCCT, 0.62. For CCACTCTATGAATCAATAGAA the value was 0.99. On to TCAGTGTATGTTAGTACAAAT, for which the “fold depletion of shRNA” value turned out to be 0.874. For AATAGATGAGATCAAGAATGA the value was 1.14. For GAAGGGAAGGAGTACACAGAC the value was 0.573.

Regarding CTTCTTCAAGTCCGCCATGCC, the “fold depletion of shRNA” value was 1.

For AGTCCGCCATGCCCGAAGGCT, the “fold depletion of shRNA” value worked out at 2.99. For CGTGACCGCCGCCGGGATCAC the value was 0.82; for TTTATAACTCTGAGAAGATCA, 1.63; for TTCAAACTTCAGAAATGAAAT, 0.781. As for ACAACTACAACAGCCACAACG, the “fold depletion of shRNA” value is 4.5. As for TGGAGTACAACTACAACAGCC, the figure is 2.94.

For GGTTCTCATGAATCTCCAACT, the “fold depletion of shRNA” value was 1.52. For CCCCACCCCCGAAAATGTTCA the value was 3.18; for ATAGATGAGATCAAGAATGAC, 1.61.

For CCACTATTGCTGGAGTCATGA, the “fold depletion of shRNA” value is 4.71. On to ACGGCAACATCCTGGGGCACA, for which the “fold depletion of shRNA” value is 0.952. As for TTTTTAATATCTCATGATTCT, the figure is 1.51. In the case of GAGTACACAGACAAAGCCCAT, the “fold depletion of shRNA” value came to 0.928. For TAATAGCTGGCTGTAAATACT the value was 3.07; for ATCACTCTCGGCATGGACGAG, 1.45; for ACCACTACCAGCAGAACACCC, 1.64. As for TGCAGAGAAAATTCAGACTAT, the figure is 1.05. For GGCATCAAGGCCAACTTCAAG the value was 2.5; for GTCAAGTTAAAGGCTTTGTTC, 1.02. Consider CCATTTATGGAGGATTTTTTT, for which the “fold depletion of shRNA” value worked out at 0.798. TATGTATTTGAGTGCAGAATT: the “fold depletion of shRNA” value worked out at 1.28.

As for AACTACAAGACCCGCGCCGAG, the “fold depletion of shRNA” value turned out to be 1.88.

On to CAGTGCTTCGCCCGCTACCCC, for which the “fold depletion of shRNA” value was 0.661. As for TGTAAATACTGCTTGGTTTTT, the figure is 0.802. As for CATATTTGTAGATTTTTAATA, the figure is 1.26. As for TGCATTTTACTGGCTCAAAAC, the figure is 1.21; as for TATCATCCTCAAGGACATTAC, 1.98. On to ATTCTAGAGATTTTACCATAT, for which the “fold depletion of shRNA” value turned out to be 0.797.

Regarding GAAATAAACTGCACCCGGACC, the “fold depletion of shRNA” value is 0.489.

On to TAGAAAACATTAAATTATAAT, for which the “fold depletion of shRNA” value is 1.3. For TGTTAGTACAAATGTCTATCC the value was 0.669; for CCCCGACCACATGAAGCAGCA, 3.02; for AGTCCGCCCTGAGCAAAGACC, 1.21.

On to ATTCTGTAGTATGAATGTAAT, for which the “fold depletion of shRNA” value came to 0.844. For the sequence TGCCTCCAAGGATGTTTAAAA, the “fold depletion of shRNA” value was determined as 1.22.

In the case of CAATGGTAAAATCATCATCTG, the “fold depletion of shRNA” value is 0.978. As for GAAAGGAAAACCAAGGTTCTC, the figure is 0.915. For ATTCAAACTTCAGAAATGAAA the value was 0.63; for AAATACTTAATAGTCCACCAA, 1.03. For TGACTCAGAAAATTCAAACTT, the “fold depletion of shRNA” value was determined as 0.847. As for GCGCGATCACATGGTCCTGCT, the figure is 0.701; as for TAAAGTATATGTATTTGAGTG, 0.988; as for GACATTACTAGTGACTCAGAA, 1.01. As for AAAATTCAAACTTCAGAAATG, the figure is 0.99. TATCGTCCAAAAGTGTTAATG: the “fold depletion of shRNA” value is 3.68.

On to CGACACCCTGGTGAACCGCAT, for which the “fold depletion of shRNA” value was found to be 2.06. For the sequence AGAAAGGAAAACCAAGGTTCT, the “fold depletion of shRNA” value was found to be 0.87.

For the sequence AAGACTGTTACTACAGTTGAG, the “fold depletion of shRNA” value worked out at 0.874. For the sequence GTGTCAATGAAGCCAAAATAG, the “fold depletion of shRNA” value was determined as 0.904. For GGAATTGAGGAAGACTGTTAC the value was 0.537; for TCACCGGGGTGGTGCCCATCC, 1.55.
